Results from PubChem BioAssay (Tox21).
Several values for one entry are separate records, joined by “and”; a condition that tells them apart may be missing. Equal values may be shown once. Inconclusive results, whose numbers are uncertain, are shown with a selection of clear calls. Potencies of inconclusive entries are doubtful fits and often do not repeat. A structure can be active in one record and inactive in another. Activity calls are given as the source filed them. Unless noted, calls come from the whole dose curve; as a rule, active = well fitted curve in the direction sought with a large enough effect in the repeat runs; inconclusive = weak or mixed curves; inactive = no such curve, though single readings can be large; an effect the other way counts as inactive or inconclusive.

Columns and labels:
[1] = qHTS assay to identify small molecule antagonists of the retinoid acid receptor (RAR) signaling pathway - cell viability counter screen (AID 1159551); note: nearly all actives have a fitted effect of over 35% in size
Procedure, shortened: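 Seed C3RL4 cells; next day add compound, then retinol to 1 uM final; incubate 6 h at 37 C; add CellTiter-Glo; read luminescence after 30 min at RT.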

[2] = qHTS assay to identify small molecule agonists of the retinoic acid receptor (RAR) signaling pathway (AID 1159553); conditions: C3RL4 RARE luciferase reporter, agonist, 6 h; for activation: % is set by controls: 0 for no effect and ±100 for the full control effect
Procedure, shortened: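 Activation of retinol signaling was monitored via a RARE luciferase reporter in C3RL4 cells. After 6 hr compound treatment at 37 C, detection reagent was added for 30 min at room temperature before luminescence reading.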

[3] = qHTS assay to identify small molecule agonists of the constitutive androstane receptor (CAR) signaling pathway - cell viability counter screen (AID 1224836); note: nearly all actives have a fitted effect of over 45% in size
Procedure, shortened: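 Using CellTiter-Fluor, viability of HepG2 cells harbouring hCAR and CYP2B6-2.2kb was measured following 23 h incubation with a 15-concentration compound series plus PK11195 (0.75 uM final).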

[4] = qHTS assay to identify small molecule antagonists of the constitutive androstane receptor (CAR) signaling pathway - cell viability counter screen (AID 1224837); note: nearly all actives have a fitted effect of over 45% in size
Procedure, shortened: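 Using CellTiter-Fluor, viability is scored in HepG2 cells stably carrying hCAR and a 2.2kb CYP2B6 reporter after 23 hr compound exposure across 15 concentrations, with CITCO present at 50 nM.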

[5] = qHTS assay to identify small molecule antagonists of the estrogen related receptor signaling pathway with the pleiotropic PPARgamma coactivator (PGC) from Tox21 10K library (AID 1224841; call rule not given here; note: actives are mostly falling curves and most rising ones were filed inactive; nearly all actives have a fitted effect of over 50% in size)
Procedure, shortened: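 Each well held 2,000 PGC/ERR cells, pre-incubated six hours (37 C, 5% CO2). Test substances in DMSO were added by pin tool and left for 18 h at 37 C before luciferase detection by One-Glo.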

[6] = qHTS assay to identify small molecule agonists of the hypoxia (HIF-1) signaling pathway - cell viability counter screen (AID 1224844; calls by dose curve; note: nearly all actives have a fitted effect of over 50% in size)
Procedure, shortened: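 Multiplexed with the HRE beta-lactamase assay, this viability read used CellTiter-Glo luminescence (30 min, RT) on HRE-bla ME-180 cells treated 17 hrs with compounds in 0.5% dialyzed FBS medium.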

[7] = qHTS assay to identify small molecule antagonists of the estrogen related receptor (ERR) signaling pathway from Tox21 library - cell viability counter screen (AID 1224834); note: nearly all actives have a fitted effect of over 30% in size
Procedure, shortened: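 CellTiter-Fluor fluorescence measured; ERR cells; 17.5 h compound incubation at 37 C; 30 min reagent step.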

[8] = target: Thyrotropin receptor (Homo sapiens) (UniProt P16473); test: qHTS assay to identify small molecule agonists of the thyroid stimulating hormone receptor (TSHR) signaling pathway (AID 1224843; calls by dose curve; note: nearly all actives have a fitted effect of over 45% in size); conditions: TSHR-HEK293 cells, cAMP HTRF, agonist mode, 30 min; activation: at 92.4 µM (top of the series) unless noted
UniProt P16473, sequence (P16473 whole entry, looked up): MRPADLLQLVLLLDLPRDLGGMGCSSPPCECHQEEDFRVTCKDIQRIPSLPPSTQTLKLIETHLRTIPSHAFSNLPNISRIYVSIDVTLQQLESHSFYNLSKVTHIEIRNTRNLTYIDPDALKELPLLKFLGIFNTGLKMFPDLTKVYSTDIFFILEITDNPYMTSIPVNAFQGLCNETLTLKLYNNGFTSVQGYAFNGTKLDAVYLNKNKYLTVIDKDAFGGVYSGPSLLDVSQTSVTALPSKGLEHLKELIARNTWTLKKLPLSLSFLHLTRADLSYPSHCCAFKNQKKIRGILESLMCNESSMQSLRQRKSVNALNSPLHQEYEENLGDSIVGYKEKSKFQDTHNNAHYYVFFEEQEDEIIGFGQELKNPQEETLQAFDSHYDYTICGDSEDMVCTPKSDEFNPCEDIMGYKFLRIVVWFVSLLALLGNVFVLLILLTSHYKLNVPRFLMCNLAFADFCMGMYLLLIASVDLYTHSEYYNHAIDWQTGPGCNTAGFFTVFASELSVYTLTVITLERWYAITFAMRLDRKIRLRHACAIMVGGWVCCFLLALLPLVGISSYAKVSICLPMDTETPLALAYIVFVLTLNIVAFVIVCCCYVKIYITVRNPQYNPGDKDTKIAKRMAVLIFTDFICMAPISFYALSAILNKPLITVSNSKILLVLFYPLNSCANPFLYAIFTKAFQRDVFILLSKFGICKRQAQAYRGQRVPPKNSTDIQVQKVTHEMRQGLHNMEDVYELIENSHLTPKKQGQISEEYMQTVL
Procedure, shortened: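 Steps: seed 800 TSHR-HEK293 cells per well; add test compound and hold 30 min at ambient temperature; dispense cAMP-d2 then anti-cAMP cryptate; incubate 1 h at ambient; measure fluorescence intensity.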

[9] = qHTS assay to identify small molecule antagonists of the estrogen related receptor signaling pathway with the pleiotropic PPARgamma coactivator (PGC) from Tox21 10K library - cell viability counter screen (AID 1224840; active = well fitted cell-killing curve with a large enough effect in the repeat runs, not every such curve was filed as active; inconclusive = weak or mixed curves, or effect the other way; inactive = no such curve, though single readings can be large or run the other way; note: nearly all actives have a fitted effect of over 40% in size)
Procedure, shortened: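 Here the PGC/ERR cells serve as a cytotoxicity control: they are exposed to compounds for 17.5 hours at 37 C, and live-cell signal is quantified using CellTiter-Fluor fluorescence.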

[10] = qHTS assay to identify small molecule antagonists of the estrogen related receptor (ERR) signaling pathway - cell viability counter screen (AID 1224818);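 note: viability measured after 17.5 h of compound exposure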
Procedure, shortened: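 In the same ERR cell assay, compound-treated wells (17.5 h, 37 C) were multiplexed with a fluorogenic viability reagent, CellTiter-Fluor, read after 30 min to flag cytotoxic substances.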

[11] = qHTS assay to identify small molecule antagonists of the estrogen related receptor signaling pathway with the pleiotropic PPARgamma coactivator (PGC) cell viability counter screen (AID 1224822)
Procedure, shortened: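 Compounds in DMSO, with positive and negative controls, were applied to PGC/ERR cells (2,000/well) and left 17.5 h at 37 C before CellTiter-Fluor detection.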

[12] = target: Nuclear receptor subfamily 1 group I member 3 (Homo sapiens) (UniProt Q14994); test: qHTS assay to identify small molecule antagonists of the constitutive androstane receptor (CAR) signaling pathway (AID 1224838);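 note: HepG2 cells stably expressing hCAR with CYP2B6 luciferase reporter stimulated by CITCO; nearly all actives have a fitted effect of over 40% in size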
UniProt Q14994, sequence (Q14994 whole entry, looked up): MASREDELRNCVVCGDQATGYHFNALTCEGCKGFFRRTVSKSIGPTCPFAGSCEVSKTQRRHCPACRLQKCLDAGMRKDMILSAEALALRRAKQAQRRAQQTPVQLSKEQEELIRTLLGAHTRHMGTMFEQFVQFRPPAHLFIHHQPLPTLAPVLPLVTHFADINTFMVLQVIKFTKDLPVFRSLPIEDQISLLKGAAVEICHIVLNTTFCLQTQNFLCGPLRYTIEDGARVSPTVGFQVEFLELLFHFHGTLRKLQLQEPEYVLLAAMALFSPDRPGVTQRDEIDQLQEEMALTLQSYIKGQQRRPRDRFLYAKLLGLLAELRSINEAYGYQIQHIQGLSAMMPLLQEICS
Procedure, shortened: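 Reporter luminescence was quantified after 24 h exposure of hCAR/CYP2B6-2.2kb double-stable HepG2 cells to compounds at 15 concentrations in the presence of 50 nM CITCO final.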

[13] = qHTS assay to identify small molecule antagonists of the estrogen related receptor (ERR) signaling pathway (AID 1224819; note: nearly all actives have a fitted effect of over 50% in size)
Procedure, shortened: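 qHTS in ERR cells, 2,000/well, 1536 format. Cpd (DMSO) added after 6 h settle, 18 h 37 C. One-Glo luminescence, 30 min RT.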

[14] = target: Luciferin 4-monooxygenase (Photinus pyralis) (UniProt P08659); test: qHTS assay to identify small molecule inhibitors of firefly luciferase (AID 1224835); note: nearly all actives have a fitted effect of over 25% in size
UniProt P08659, sequence (P08659 whole entry, looked up): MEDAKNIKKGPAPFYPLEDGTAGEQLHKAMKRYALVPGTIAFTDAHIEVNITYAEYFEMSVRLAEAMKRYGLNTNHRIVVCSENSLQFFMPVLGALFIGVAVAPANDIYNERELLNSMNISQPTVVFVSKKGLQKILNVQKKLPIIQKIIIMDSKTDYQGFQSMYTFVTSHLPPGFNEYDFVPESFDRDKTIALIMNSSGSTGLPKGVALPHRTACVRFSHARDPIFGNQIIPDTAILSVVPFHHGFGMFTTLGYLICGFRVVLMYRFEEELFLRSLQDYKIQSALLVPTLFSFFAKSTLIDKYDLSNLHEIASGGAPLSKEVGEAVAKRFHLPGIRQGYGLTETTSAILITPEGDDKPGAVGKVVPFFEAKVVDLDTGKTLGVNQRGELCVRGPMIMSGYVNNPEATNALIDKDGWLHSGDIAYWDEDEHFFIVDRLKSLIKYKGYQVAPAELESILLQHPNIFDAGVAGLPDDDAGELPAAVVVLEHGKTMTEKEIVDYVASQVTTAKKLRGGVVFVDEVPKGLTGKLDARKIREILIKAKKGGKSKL
Procedure, shortened: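 Biochemical qHTS: compounds run as interplate titrations against purified firefly enzyme, with D-luciferin and ATP each at its KM concentration. Light output recorded by CCD imaging.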

[15] = activation: at 73.3 µM (top of the series) unless noted
Potency is the fitted concentration of half-maximal effect; tags give direction and shape of the fitted curve or compound fluorescence and quenching.

In the case of `NC1(c2ccc(-c3nc4ccn5c(=O)[nH]nc5c4cc3-c3ccccc3)cc2)CCC1`, the Potency [1] is reported as inconclusive: 33.5 µM [cytotoxic, single point], the Potency [2, 15] is reported as inconclusive: 4.22 µM [inhibitor, partial curve] and the Potency [3] is reported as inconclusive: 11.9 µM [cytotoxic, partial curve]. For the same compound, the Potency [4] was inconclusive: 11.9 µM [cytotoxic, partial curve], the Potency [5] was active: 3.35 µM and the Potency [6] was active: 2.13 µM.

For `CCN=c1cc2oc3cc(NCC)c(C)cc3c(-c3ccccc3C(=O)OCC)c-2cc1C`, the Potency [1] was active: 60.9 µM and active: 48.6 µM, the Potency [2, 15] was inconclusive: 7.66 µM [inhibitor, partial curve] and inconclusive: 30.6 µM [inhibitor, partial curve] and the Potency [7] was active: 272 nM and active: 243 nM. For the same compound, the Potency [3] was inconclusive: 965 nM [cytotoxic, full curve] and inconclusive: 1.72 µM [cytotoxic, full curve], the Potency [4] was inconclusive: 1.36 µM [cytotoxic, full curve] and inconclusive: 1.54 µM [cytotoxic, full curve] and the Potency [8] was inconclusive: 54.3 µM [fluorescent, partial curve] and inconclusive: 54.5 µM [fluorescent, single point]. For the same compound, the Potency [6] was inconclusive: 54.7 µM [cytotoxic, single point].

With `CC(=O)Nc1ccc(C(=O)CCl)cc1` the Potency [1] was inconclusive: 21.7 µM [rising, full curve], the activation [2, 15] was inconclusive: 6.73% [phenotype inactive] [at 94.8 µM] and the activation ([2]; at 73.3 µM (top of the series)) was inactive: -16.4%. The Potency [7] was inconclusive: 77 µM [cytotoxic, single point], the Potency [9] was inconclusive: 54.5 µM [cytotoxic, partial curve] and the Potency [6] was active: 11 µM.

In the case of `CC(C)(C)c1ccc(C(=O)CCCN2CCC(OC(c3ccccc3)c3ccccc3)CC2)cc1`, the Potency [1] is reported as inconclusive: 26.6 µM [cytotoxic, partial curve], the Potency [2, 15] is reported as inconclusive: 23.7 µM [inhibitor, partial curve] and the Potency [10] is reported as inconclusive: 27.6 µM [cytotoxic]. For the same compound, the Potency [11] was inconclusive: 29.8 µM [cytotoxic, single point], the Potency [4] was active: 29.8 µM and the Potency [12] was inconclusive: 33.5 µM [inhibitor, single point]. For the same compound, the Potency [9] was active: 29.8 µM and the Potency [8] was active: 11.9 µM.

For `Cc1cc(O)c2ccccc2c1O`, the Potency [1] was active: 13.3 µM, the Potency [2, 15] was inconclusive: 16.8 µM [inhibitor, full curve] and the Potency [7] was inconclusive: 21.1 µM [cytotoxic, partial curve]. The Potency [4] was inconclusive: 13.3 µM [cytotoxic, single point], the Potency [12] was active: 16.8 µM and the Potency [5] was inconclusive: 33.5 µM [falling, single point].

With `OCCN1CCN(CC/C=C2/c3ccccc3Sc3ccc(C(F)(F)F)cc32)CC1` the Potency [1] was inconclusive: 33.5 µM [cytotoxic, single point], the Potency [2, 15] was inconclusive: 29.8 µM [inhibitor, partial curve] and the Potency [10] was inconclusive: 33.5 µM [cytotoxic, partial curve, poor fit]. The Potency [13] was inconclusive: 25.1 µM [inhibitor], the Potency [7] was active: 29.8 µM and the Potency [3] was inconclusive: 33.5 µM [cytotoxic, single point]. For the same compound, the Potency [4] was inconclusive: 29.8 µM [cytotoxic], the Potency [9] was active: 29.8 µM and the Potency [5] was active: 29.8 µM.

In the case of `CCCCCCCCCCCCCCCCCC[N+](C)(C)Cc1ccccc1`, the Potency [1] is reported as active: 61.7 µM, the Potency [2, 15] is reported as inconclusive: 27.6 µM [inhibitor, partial curve] and the Potency [14] is reported as inconclusive: 90.2 µM [inhibitor, single point]. For the same compound, the Potency [3] was active: 55 µM, the Potency [9] was active: 55 µM and the Potency [6] was active: 24.8 µM.

In the case of `CCc1cc(Cc2cc(CC)cc(C(C)(C)C)c2O)c(O)c(C(C)(C)C)c1`, the Potency [1] is reported as active: 68.6 µM, the Potency [2, 15] is reported as inconclusive: 27.3 µM [inhibitor, partial curve] and the Potency [7] is reported as active: 54.5 µM. For the same compound, the Potency [4] was active: 61.1 µM, the Potency [9] was active: 43.3 µM and the Potency [5] was active: 27.3 µM. The Potency [6] was active: 11 µM.

With `Oc1c(Cl)cc(Cl)c(Cl)c1Cc1c(O)c(Cl)cc(Cl)c1Cl` the Potency [1] was inconclusive: 15.3 µM [cytotoxic, full curve] and inconclusive: 15.4 µM [cytotoxic, partial curve, poor fit] and inconclusive: 16.8 µM [cytotoxic, partial curve, poor fit], the Potency [2, 15] was inconclusive: 7.67 µM [inhibitor, partial curve, poor fit] and inconclusive: 11.9 µM [inhibitor, partial curve] and the Potency [14] was inconclusive: 89.1 µM [inhibitor]. The Potency [3] was inconclusive: 9.69 µM [cytotoxic, full curve] and inconclusive: 10.6 µM [cytotoxic, full curve], the Potency [4] was inconclusive: 10.8 µM [cytotoxic, full curve] and inconclusive: 12.2 µM [cytotoxic, full curve] and the Potency [9] was inconclusive: 6.84 µM [cytotoxic, full curve] and inconclusive: 6.86 µM [cytotoxic, full curve] and inconclusive: 10.6 µM [cytotoxic, partial curve]. For the same compound, the Potency [8] was active: 15.3 µM and the Potency [6] was active: 19.4 µM and active: 19.5 µM and inconclusive: 26.8 µM [cytotoxic, single point].
